Measured values as given in the supplement of paper PMC11417369.
This is one part of the list.

Each sequence was assayed on PfHDP1 homeodomain (GST-tagged) (assay: gcPBM binding intensity (ln(normalized median fluorescence intensity)); higher = stronger DNA binding).
Method in brief: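 An Agilent 4 × 180k array carrying primer-extended double-stranded 36-bp intergenic genomic probes and negative controls received GST-tagged P. falciparum DNA-binding domains expressed in E. coli, about 25 μg on average, for 1 h. The binding buffer contained 1× PBS, 1% milk, 0.2 mg/ml BSA, 0.5% salmon testes DNA and 0.03% Triton X-100. Binding intensity is the top Masliner-normalised natural-log median intensity across replicate spots of either probe orientation, read after Alexa488 anti-GST antibody staining and a 488 nm scan.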

Compared with “TATGTTAAAAAAAAAAAAAAGAAAAAAATAAAAGGA [CACACA_negctrl_site119]”, “TTTTTTTTTTTTACATGTACATATGAATTATAATAT [XGTACX_site5016]” is higher in “gcPBM binding intensity (ln)” value: 6.23 for the first, 6.83 for the second.

Going from “TATTTTACTTTAAAAATGGAAAAAAAAAAGAATATT [CACACA_negctrl_site1360]” to “ATTGTCATCATTATATGTACGTAAAAGAATATAGAT [XGTACX_site3117]”, the “gcPBM binding intensity (ln)” value rises from 6.27 to 6.88.

First: GAAAGAAGCATAAATGTACACACATATTTATATATT [CACACA_site8368]
Second: TTAATAAAACTAACACGTACACATATATAATATTAT [XGTACX_site3260]
The “gcPBM binding intensity (ln)” value of the first is lower: 6.54 for the first, 6.71 for the second.

Going from “CGTGGAAAAAAAAACACACACAAAAAAAAAAAAAAA [CACACA_site3997]” to “TTCAAATATATGTTTTCACACACAAAAGAAATGAAA [CACACA_site8671]”, the “gcPBM binding intensity (ln)” value rises from 6.34 to 6.48.

Going from “ATATATATATAATATTGTACGAAAAAAAATAAAAAA [XGTACX_site974]” to “TTTTCTCTAAAAAGGTGTACAACTAATAATGCACTG [XGTACX_site6074]”, the “gcPBM binding intensity (ln)” value rises from 8.1 to 10.6.

Going from “AAATATAATTAATGATGTACACTTATAGATATTGAT [XGTACX_site8435]” to “TACTGATATAATATAACCGTTTATGTGTATTTTTTA [XGTACX_negctrl_site81]”, the “gcPBM binding intensity (ln)” value falls from 6.65 to 6.51.

Compared with “TATAATAAAATTTTTACACACTTTAAAAAAAAAAAA [CACACA_site524]”, “TATTCTCGTTCTCATACACACAAAATATACATACAC [CACACA_site7278]” is higher in “gcPBM binding intensity (ln)” value: 6.16 for the first, 7.19 for the second.

Compared with “GGGTTAATATTTACTACACACACTTAAAATATGTAT [CACACA_site47]”, “ATGTATTTTTAAAAATATAAATTATGTAACTTGTGA [XGTACX_negctrl_site620]” is lower in “gcPBM binding intensity (ln)” value: 6.86 for the first, 6.42 for the second.

First: ACATATTTTTACTTTTGTACATATTTTTTAATTTTC [XGTACX_site640]
Second: TTTATATATTTTTATCTTGATAATAATGTTTTAGAA [TGCATGCA_negctrl_site300]
The “gcPBM binding intensity (ln)” value of the first is higher: 6.85 for the first, 5.87 for the second.

Compared with “GTATATTACATAAAATGTACATAAAAAGCGGAAAAG [XGTACX_site6905]”, “ATGGGTTAGGCGTGTACACAATTGTATGGTTTAATA [CACACA_site4812]” is lower in “gcPBM binding intensity (ln)” value: 7.39 for the first, 7.12 for the second.

Compared with “AATAAGAAAACAAATGCACACCATTTATATAGATTA [CACACA_site8261]”, “TATATTAATTATAAGACACACATATAGTAATAGAAA [CACACA_site2056]” is lower in “gcPBM binding intensity (ln)” value: 9.71 for the first, 6.67 for the second.

Going from “TACTATATCATTTATTGTACAATATTTCTTCAGAAA [XGTACX_site1008]” to “CTTTGCCTTAAAAAGGAACACACATGCTTTTTTTAG [CACACA_site8219]”, the “gcPBM binding intensity (ln)” value falls from 6.69 to 6.21.

Compared with “TATAAAAGACTAAATATTATAGAAATATAAATATAA [TGCATGCA_negctrl_site237]”, “AATGGGTAAACATACACACACACATCTATATTTATA [CACACA_site7025]” is higher in “gcPBM binding intensity (ln)” value: 6.02 for the first, 6.52 for the second.

Compared with “TAACAAGGTTTATATGCATGCAAACATAACCAAAAA [TGCATGCA_site824]”, “GGTTCATAATATGGTTGTACATAAATATATATATAT [XGTACX_site7583]” is higher in “gcPBM binding intensity (ln)” value: 6.58 for the first, 8.63 for the second.

First: GGGAGGATAGTTCACAGTACCCAGGAAATCTACGGA [XGTACX_site2553]
Second: AAACAGATAAATAAAAGTACACATTAAAAGGTAGCA [XGTACX_site4150]
The “gcPBM binding intensity (ln)” value of the first is lower: 6.27 for the first, 6.47 for the second.

Going from “ATATATATGTATAATCGTACAGTTAACGTATTCTTA [XGTACX_site5649]” to “TAATTAATTTCTTTACGTACATAATTAATATATATA [XGTACX_site7372]”, the “gcPBM binding intensity (ln)” value rises from 6.48 to 6.54.

Going from “GGATTTTAATGAACACGTACATAAAATTAAATAAAT [XGTACX_site7023]” to “ATTACAATAAATTCGTGTACATGATACCGCCGCTAC [XGTACX_site8997]”, the “gcPBM binding intensity (ln)” value rises from 6.25 to 6.86.

First: ATCAAATTTTTGTTATGTACACAATCATTTAATAAA [XGTACX_site810]
Second: CACAAATAAATATTCACACATATATGTCTTATATAT [CACACA_site5323]
The “gcPBM binding intensity (ln)” value of the first is lower: 6.19 for the first, 6.36 for the second.

First: AAAAAAAAAAAATAGGTGCGTGTTACTTTTGTATGC [GTGCAC_site9524]
Second: TAATTATTATTAAATACACACACATACCTCCATGTT [CACACA_site9134]
The “gcPBM binding intensity (ln)” value of the first is higher: 6.73 for the first, 6.7 for the second.

First: TTGCATTGATCAAACATACACACATGGTTAATAAAA [CACACA_site2084]
Second: TATTCTTATATATATACACACACAAAATATCTACAA [CACACA_site8144]
The “gcPBM binding intensity (ln)” value of the first is lower: 6.8 for the first, 6.94 for the second.

First: AATAATATACATATATATATTATATTGTAATTTTGT [TGCATGCA_negctrl_site1]
Second: ACTAGACAAAATATAATGCACACTATTATTTTTATT [CACACA_site2726]
The “gcPBM binding intensity (ln)” value of the first is lower: 6.22 for the first, 10.6 for the second.

First: TTATATCAAGGGAATGCATGCATATCGTTTTGTATT [TGCATGCA_site327]
Second: TATTTCTCACTGTATGGTACAGATATAAATTTTTAT [XGTACX_site8776]
The “gcPBM binding intensity (ln)” value of the first is higher: 6.6 for the first, 6.44 for the second.

Going from “TATATATATATATATGTGCGCATATATTTTTTTGTA [GTGCAC_site9983]” to “ACAAAATTTACAAAATGTACAAAATATACAAAATAT [XGTACX_site6465]”, the “gcPBM binding intensity (ln)” value falls from 9.33 to 6.34.

Compared with “TTGTGTTATCCTTTTTTAGATCAACTATTTTTATTC [CACACA_negctrl_site145]”, “ATAAAGCACACCGACACACACATATTTATATTTATA [CACACA_site6620]” is higher in “gcPBM binding intensity (ln)” value: 6.32 for the first, 6.87 for the second.

Going from “TATAAAATAAAAAATAAATATCTATATATATATATA [TGCATGCA_negctrl_site351]” to “TAAATACATAGATGTACACACATTACAGATGTACAT [CACACA_site4692]”, the “gcPBM binding intensity (ln)” value falls from 9.31 to 6.44.

First: ATTTATAAAATTAATGCACACATCAGCATTTATAAA [CACACA_site1025]
Second: ATAAGAAATGTAACTTGTACATAAGGATATATATTT [XGTACX_site236]
The “gcPBM binding intensity (ln)” value of the first is higher: 10.6 for the first, 6.48 for the second.

Going from “TAATAATAAAAAAATAGTACATAAATAAAAATAATA [XGTACX_site4774]” to “CATTTATATAAATACACACACACAAAAAAAAAAAAA [CACACA_site5459]”, the “gcPBM binding intensity (ln)” value falls from 6.66 to 6.42.

Compared with “TTTATACATTTATATTGTACTAATTCGATTTTATAT [XGTACX_site5424]”, “AAAGAAAAAGAAAAAGAAAAATTAGAATATAAAATA [CACACA_negctrl_site792]” is lower in “gcPBM binding intensity (ln)” value: 6.52 for the first, 5.93 for the second.
